Some of the results follow. At the low end of the ranking the order means little.

219 sequences from PMC10668032 can be followed below.

This test addresses SIX1-Q177R homeodomain (UniProt Q15475). The test is described as follows: universal protein binding microarray. Conditions: Universal all-10-mer PBM (8x60K, AMADID 030236), 300 nM GST-tagged protein, Alexa Fluor 488 anti-GST; buffer, salt, pH and temperature not stated; high values mean tight binding; most listed sequences are background and not binding sites; double strand, one strand shown.
CATACATG: the binding signal is 0.0434 E-score.

Take GTAGGAAC: the binding signal amounted to 0.00405 E-score. Under AAGATCGT stands -0.171 E-score; under CTCGTCTA, -0.181 E-score. Under AGAACTAA stands -0.0717 E-score; under GCTACTCC, 0.113 E-score; under GGAGTACC, 0.218 E-score.

As for ACGTATTC, the binding signal was found to be 0.127 E-score.

As for GACTCGCC, the binding signal came out at 0.0639 E-score. Under ACTCCAGG stands 0.228 E-score; under CGATTCAA, -0.164 E-score; under ACCGCTCT, -0.0829 E-score. Next, CATATATG: -0.0473 E-score; AGTTTCTG: -0.0192 E-score; GCTTCCAA: -0.235 E-score.

For the sequence ATGAGCAC, the binding signal worked out at 0.108 E-score.

Turning to TAGGGACA, the binding signal stood at 0.0681 E-score. Next, CGGTTGCA: -0.0304 E-score; ATCTCCCA: -0.0873 E-score. Next, GTCGAGGA: -0.0114 E-score.

Take CGATCCGA: the binding signal is 0.03 E-score. Under GGATAAAA stands 0.0625 E-score; under CATGGCTA, -0.132 E-score; under CACTTCAC, 0.154 E-score. Next, GAACATCA: -0.349 E-score; ACCGACAC: 0.425 E-score; CCATCCGA: 0.0548 E-score. Take GGGTCCAC: the binding signal came out at 0.164 E-score. In the case of AAGCCCGC, the binding signal is 0.0149 E-score. Turning to AGTTAGAG, the binding signal is -0.163 E-score. Next, CACAGTAC: 0.11 E-score.

Regarding GGCCCAAA, the binding signal was -0.112 E-score. In the case of CCTCACTC, the binding signal is -0.059 E-score. Next, CGGGGATA: 0.202 E-score; CATCCCAC: -0.162 E-score. Under ATGAGGTC stands -0.143 E-score; under CAATCTCA, -0.0571 E-score.

As to AAGGGCGA, the binding signal is -0.198 E-score. Next, CCCCAAGC: 0.228 E-score; CTGCCCTA: -0.0917 E-score; GGTCCCAC: 0.141 E-score.

For ACCCCTTC, the binding signal turned out to be 0.243 E-score. Next, CAGAACTA: -0.15 E-score. Under TCCAACGA stands -0.206 E-score; under AGGACACC, 0.484 E-score. Next, GGTCCAAC: -0.0925 E-score; CATGGATA: 0.0901 E-score. For the sequence GCGTCCCA, the binding signal is -0.115 E-score. Take CTCGGCAC: the binding signal was 0.194 E-score.

As to ACATAGAC, the binding signal was -0.0858 E-score.

With AACAAGAA, the binding signal is -0.14 E-score. Next, GTGAGAAA: -0.0648 E-score; GACGACTA: -0.101 E-score; AAAAGACA: 0.12 E-score. In the case of TGGGTCAA, the binding signal was 0.122 E-score. Under CCCCTACA stands 0.279 E-score; under AACTACAA, 0.134 E-score. Next, CCTCTCAA: 0.0339 E-score.

Consider CCTATACC, for which the binding signal came out at 0.0409 E-score. Next, ACTGTCGA: 0.0829 E-score; GAAGAAGC: -0.245 E-score. Under CTATCACC stands -0.0237 E-score; under CACCAGAG, 0.195 E-score. Next, AAGGCTCA: -0.155 E-score; GGCCTAAC: -0.071 E-score.

Turning to CATGGGGG, the binding signal is 0.217 E-score.

In the case of ATGAGCGG, the binding signal was -0.23 E-score. Regarding CGTGACGC, the binding signal was 0.051 E-score. Next, AGGGTATC: 0.363 E-score.

CACCGAAC: the binding signal was 0.335 E-score. Next, CCTCCTAC: 0.135 E-score; CCTTAATC: -0.00722 E-score; CGAAATGA: -0.227 E-score. Under AACCTAGA stands -0.158 E-score; under ACGGGTCT, 0.0146 E-score; under AGTTGAAC, -0.00728 E-score.

Take GCACTCGC: the binding signal was -0.0479 E-score. Under ATTTAGGC stands -0.169 E-score; under ACAATGCT, -0.0494 E-score. Under GCGTGACA stands 0.254 E-score; under AAGCGAAG, -0.142 E-score; under CCTGTCCC, -0.105 E-score. Under ATACGCAA stands -0.125 E-score. Regarding AATGTACA, the binding signal worked out at 0.104 E-score. Consider CGTCGCAC, for which the binding signal amounted to 0.0462 E-score. Consider GGGATCTA, for which the binding signal turned out to be 0.125 E-score.

TGCTGCCA: the binding signal was -0.0255 E-score.

As for CTAGAGAA, the binding signal is -0.0106 E-score. Next, GGCTCGAA: -0.222 E-score; ATCATGAG: 0.00787 E-score. Take GACACCAA: the binding signal was 0.475 E-score. Next, AAAATGAT: -0.185 E-score. Next, AATGAGTG: 0.0655 E-score; ACACTCAG: 0.387 E-score; CATCTGGC: -0.251 E-score.

With CTTCGACC, the binding signal is -0.116 E-score. Under CGTGACCC stands 0.211 E-score. With GCAAATGA, the binding signal was -0.146 E-score. As to CGGCGTAC, the binding signal was 0.209 E-score. In the case of ACGACCTA, the binding signal came out at 0.043 E-score. CCTACGAA: the binding signal was -0.0085 E-score. Next, GGCTTATA: -0.307 E-score; TACGCTAA: -0.0402 E-score. Next, AGACCTAT: -0.265 E-score; ATAGTACA: 0.312 E-score; CGGGACTC: 0.0466 E-score.

For the sequence TCCCACAA, the binding signal is -0.0946 E-score.

ATAGTCAC: the binding signal is 0.0358 E-score.

As to AATACCGG, the binding signal came out at 0.0689 E-score.

With AAGCTGCA, the binding signal was -0.171 E-score. Next, ATTCGGCG: -0.0858 E-score. Under CATGAAAG stands -0.0869 E-score. Under AATTTCCC stands -0.249 E-score; under GACGGCGC, -0.0872 E-score. Turning to CCTGACAC, the binding signal turned out to be 0.452 E-score. Next, ACGCAGGA: -0.0285 E-score; AATTTCGG: -0.0424 E-score. On to CGAACAAG, for which the binding signal is -0.177 E-score.

On to CGAAGAGC, for which the binding signal was -0.263 E-score. Under CGATAGAG stands -0.0203 E-score; under TACAATCA, 0.0508 E-score.

For the sequence CGTATACA, the binding signal came out at 0.241 E-score. Under CGTGCAGC stands -0.00379 E-score; under GAAGTATC, 0.106 E-score; under ACGTCATA, -0.219 E-score. For TATCATAA, the binding signal was 0.0598 E-score.

Turning to AAGGTATT, the binding signal was -0.0118 E-score. On to GTGTAGTA, for which the binding signal was 0.464 E-score. Turning to AGCAAGGA, the binding signal is -0.0326 E-score.

As for GAAGCCGA, the binding signal was -0.0771 E-score. Next, CGGCCACA: 0.0248 E-score; AGAGCGAT: -0.371 E-score; GAATGCAC: 0.113 E-score. As for AGTAGCTG, the binding signal is -0.0586 E-score. Next, AATTCACC: -0.116 E-score; CACCTATG: 0.254 E-score. Next, GCGGTCAA: -0.124 E-score. Under AGATAGCA stands -0.244 E-score. In the case of CACCGAGC, the binding signal was 0.277 E-score. Consider ATAACGGC, for which the binding signal was -0.166 E-score.

For CTTTGCAA, the binding signal was -0.143 E-score. Turning to CGGTAAGA, the binding signal is -0.179 E-score. Next, CAGTGGCG: -0.00848 E-score; AATCCCAT: -0.0224 E-score; AAACGCCA: -0.0442 E-score. Under AAAGCATC stands -0.223 E-score; under CATAAGGA, -0.0341 E-score.

On to AAATTATA, for which the binding signal is 0.0853 E-score.

For the sequence CGGCAATA, the binding signal was -0.149 E-score. Next, TCGGGAAA: -0.0874 E-score; ATCTCGGC: -0.0643 E-score. Regarding ATGGAGGC, the binding signal was -0.153 E-score.

With GCGAACCC, the binding signal came to 0.174 E-score. Next, AAGTCATG: -0.19 E-score; CCGGCCCC: -0.0787 E-score. Under GCCCAGAC stands -0.115 E-score.

As to ACTGTTGA, the binding signal is -0.19 E-score. Next, GAGTGAAA: -0.0792 E-score; CCGCCGCA: -0.0509 E-score; CCCTTTTC: -0.0656 E-score. On to AGCTCAAA, for which the binding signal is -0.169 E-score. Next, ACCTGGCA: 0.02 E-score; ATTACGCC: 0.0329 E-score. On to TAGCGAAA, for which the binding signal is -0.316 E-score. Next, CTGAGGTC: -0.268 E-score; CTGTACAA: -0.0788 E-score; ATGCCGCC: -0.0731 E-score. For CGATCTCA, the binding signal is -0.065 E-score. Consider GTAGCCAA, for which the binding signal is -0.175 E-score. Under TGCCCGAA stands -0.0653 E-score. Next, ATGTACCC: 0.19 E-score; AATAACCT: -0.0418 E-score; CTTGCATA: -0.275 E-score. Under GGCGGTTA stands -0.0932 E-score; under AGACGCCA, -0.0255 E-score. For CATACGGG, the binding signal stood at 0.058 E-score. Consider TGAATTCA, for which the binding signal is 0.0157 E-score. Next, CATCATAA: -0.0873 E-score; CAAGATTC: -0.135 E-score; AAAATATC: -0.224 E-score.

AATCAAAT: the binding signal was -0.0847 E-score. As for CATGTCAA, the binding signal is -0.395 E-score. Under AACGGACA stands 0.278 E-score. Next, CTACCCGA: 0.0678 E-score; CGGCTCCC: 0.0548 E-score. Under AACCCGTT stands -0.101 E-score. For TCCATGCA, the binding signal was -0.0817 E-score. Under GCGAGATA stands -0.0482 E-score; under GTAACGAC, 0.0529 E-score; under AACCGATT, -0.122 E-score. Next, CAGGGCGA: 0.0893 E-score; CGTGACTA: -0.00741 E-score; AATCACCC: 0.047 E-score. ATTCGGTC: the binding signal was -0.234 E-score. Next, GACAACAC: 0.386 E-score.

As for CATTCTAC, the binding signal is -0.0103 E-score.

Consider CGACCAAA, for which the binding signal is 0.00806 E-score. For AACATTCA, the binding signal was -0.105 E-score. Consider CGACGTGC, for which the binding signal was -0.125 E-score. Next, CCGAATAC: 0.163 E-score.

Consider AGTGTAAC, for which the binding signal was 0.419 E-score.

ATATGAAC: the binding signal worked out at 0.0437 E-score.

Take CCGGTTTA: the binding signal was -0.0139 E-score. Next, ACTGGTAT: 0.269 E-score. Under GGCGGCTA stands -0.0763 E-score; under GCTTAAGC, 0.0359 E-score; under GTGAACTA, -0.0722 E-score.

As to GCACCCGA, the binding signal was 0.235 E-score. Under CACTTTTC stands 0.0265 E-score. In the case of GTGGGCTA, the binding signal was -0.015 E-score.

Consider CCATGAGC, for which the binding signal was -0.118 E-score. Next, CTGGGCCA: -0.156 E-score; ATAAGCTC: -0.0301 E-score. Next, CTATTGTA: -0.0301 E-score. Under AGAATGAT stands -0.171 E-score; under AAGACATG, -0.0594 E-score. Consider GAACGCCC, for which the binding signal is -0.018 E-score. With GTTACCGA, the binding signal was -0.0906 E-score. Under CAGAGTAG stands 0.141 E-score.
